Assay results taken from PubChem BioAssay (NCATS).
The shares of active, inactive and inconclusive entries below differ from those in the screen. Where the call is inconclusive, the potency comes from a doubtful curve fit. Activity calls are given as the source filed them. Calls come from the whole dose curve; as a rule, active = well fitted curve in the direction sought with a large enough effect; inconclusive = small, poorly fitted or top-dose-only effect, or another doubt; inactive = no such curve, though single readings can be large; an effect the other way counts as inactive or inconclusive.

Assays:
[1] = biological target: Flap endonuclease 1 (Homo sapiens) (UniProt P39748); assay: qHTS Assay for the Inhibitors of FEN1: Confirmatory Assay for Cherry-picked Compounds (AID 720498); settings: FEN1 flap cleavage, TAMRA/BHQ2 fluorogenic DNA substrate; note: nearly all actives have a fitted effect of over 60% in size
Summary of the method: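 Human FEN1 (10 nM reagent) was preincubated with compounds for 15 min at room temperature, then 50 nM final double-flap DNA substrate (5'-TAMRA flap, BHQ-2 quencher strand) was added. Fluorescence (ex 525/em 598 nm) was read at 0 and 15 min.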

[2] = biological target: DNA polymerase eta (Homo sapiens) (UniProt Q9Y253); assay: qHTS for Inhibitors of Polymerase Eta: Confirmatory Assay for Cherry-picked Compounds (AID 720502); settings: Pol eta primer extension, TAMRA/BHQ fluorescence, 10 min
Summary of the method: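 10 nM Pol eta + cpd, 15 min RT; start w/ 50 nM final primer/TAMRA-reporter/BHQ-2-template substrate; kinetic read 0 and 10 min, ex 525/em 598 nm. Buffer-only wells = negative control.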

[3] = qHTS for Inhibitors of WRN Helicase: Thiazole Orange DNA Binding Counterscreen (AID 720499); settings: thiazole orange DNA binding displacement, fluorescence;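 note: drop in dye fluorescence marks compound binding to DNA; nearly all actives have a fitted effect of over 60% in size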
Summary of the method: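 Mixture of 100 nM thiazole orange and 50 nM unlabeled DNA exposed to compound 15 min at room temperature. Dye displacement monitored by 480/530 nm fluorescence, identifying nonspecific DNA binders.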
Potency is the fitted concentration of half-maximal effect; tags give direction and shape of the fitted curve.

UniProt Q9Y253, sequence (Q9Y253 whole entry, looked up): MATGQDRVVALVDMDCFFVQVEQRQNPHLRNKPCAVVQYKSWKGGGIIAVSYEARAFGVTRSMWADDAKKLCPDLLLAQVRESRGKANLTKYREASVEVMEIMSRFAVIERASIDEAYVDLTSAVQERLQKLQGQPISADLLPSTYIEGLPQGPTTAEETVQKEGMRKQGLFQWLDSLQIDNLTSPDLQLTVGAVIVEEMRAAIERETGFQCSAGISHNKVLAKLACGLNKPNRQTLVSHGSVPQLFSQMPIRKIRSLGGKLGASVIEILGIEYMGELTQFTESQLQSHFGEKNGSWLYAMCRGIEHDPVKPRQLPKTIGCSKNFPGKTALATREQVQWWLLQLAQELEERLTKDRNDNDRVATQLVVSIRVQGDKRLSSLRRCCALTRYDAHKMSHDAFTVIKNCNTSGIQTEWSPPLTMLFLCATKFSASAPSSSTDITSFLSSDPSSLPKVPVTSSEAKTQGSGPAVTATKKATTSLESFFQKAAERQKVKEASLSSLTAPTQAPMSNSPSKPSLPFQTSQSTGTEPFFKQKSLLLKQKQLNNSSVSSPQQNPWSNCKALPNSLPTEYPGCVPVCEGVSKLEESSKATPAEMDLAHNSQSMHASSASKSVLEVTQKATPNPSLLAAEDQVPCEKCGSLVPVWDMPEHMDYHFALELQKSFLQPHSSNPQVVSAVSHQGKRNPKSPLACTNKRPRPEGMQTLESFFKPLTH
UniProt P39748, sequence (P39748 whole entry, looked up): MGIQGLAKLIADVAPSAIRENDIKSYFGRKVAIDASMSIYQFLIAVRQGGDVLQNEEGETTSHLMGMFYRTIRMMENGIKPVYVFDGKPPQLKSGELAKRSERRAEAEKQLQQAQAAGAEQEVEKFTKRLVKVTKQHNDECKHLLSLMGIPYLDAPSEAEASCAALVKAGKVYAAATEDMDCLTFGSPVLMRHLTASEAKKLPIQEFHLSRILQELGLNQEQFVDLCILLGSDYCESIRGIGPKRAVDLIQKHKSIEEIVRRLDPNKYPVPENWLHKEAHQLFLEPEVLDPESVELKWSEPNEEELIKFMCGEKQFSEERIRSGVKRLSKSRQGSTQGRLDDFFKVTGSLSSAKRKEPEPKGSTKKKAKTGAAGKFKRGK

With Nn1cnnc1N/N=C\c1ccc(-c2ccccc2[N+](=O)[O-])o1 the Potency [1] was inconclusive: 95.3 µM [inhibitor, single point].
With O=C(Nc1ccccc1C(=O)NC1CC1)c1ccc([N+](=O)[O-])o1 the Potency [1] was inconclusive: 84.9 µM [inhibitor, partial curve].
For O=c1c2ccccc2c(/C=N/NS(=O)(=O)c2ccccc2)c(O)n1-c1ccccn1, the Potency [1] was inconclusive: 84.9 µM [inhibitor, single point].
In the case of COCCn1c(=NC(=O)c2ccc3c(c2)OCCO3)sc2cc(S(N)(=O)=O)ccc21, the Potency [1] is reported as inconclusive: 84.9 µM [inhibitor, single point].
With CCOc1cc(/C=C(\C#N)C(=O)Nc2cccc(C(=O)O)c2)ccc1OCc1ccccc1Cl the Potency [1] was inconclusive: 84.9 µM [inhibitor, partial curve] and the Potency [2] was inconclusive: 95.3 µM [inhibitor, single point].
For COc1ccc(/C=N/Nc2cc(C)nc3ccc(Br)cc23)cc1, the Potency [1] was inconclusive: 47.8 µM [inhibitor, partial curve].
For Cc1c(Cl)cccc1NS(=O)(=O)c1ccc2c(c1)C1C=CCC1C(c1ccc(C(=O)O)cc1)N2 (centres undefined), the Potency [1] was active: 60.1 µM and the Potency [2] was active: 6.75 µM.
For CCOc1cc(/C=C2\C(=O)N(CCC#N)N=C2C)ccc1OCC(N)=O, the Potency [1] was inconclusive: 84.9 µM [inhibitor, single point].
With N#CNC(=O)c1ccc(-n2cccc2/C=C2\NC(=O)N(CC(=O)Nc3ccc(F)cc3)C2=O)cc1 the Potency [1] was active: 33.8 µM.
In the case of CCN(CC)CCOC(=O)c1ccc(NC(=O)CCCN2C(=O)/C(=C\c3cccs3)SC2=S)cc1, the Potency [1] is reported as inconclusive: 75.7 µM [inhibitor, single point].
For CCOc1ccc(CNC(=O)C2CCN(c3nnc(C)c4c(C)n(-c5ccc(C)cc5)nc34)CC2)cc1, the Potency [1] was inconclusive: 47.8 µM [inhibitor, partial curve].
With COc1ccccc1N1C(=N)S/C(=C\c2ccc(-c3ccccc3C(=O)O)o2)C1=O the Potency [1] was inconclusive: 75.7 µM [inhibitor, partial curve].
In the case of C#CCN1C(=O)S/C(=C\c2ccc(-c3ccc(C(=O)O)cc3C)o2)C1=O, the Potency [1] is reported as inconclusive: 67.5 µM [inhibitor, partial curve].
With CCN(CC)CCCNc1nc2ccccc2c2[nH]c3ccc(OC)cc3c12 the Potency [1] was active: 2.69 µM and the Potency [3] was inconclusive: 10.8 µM [inhibitor, partial curve].
For CCN=c1scc(C)n1/N=C/c1ccc(O)c(O)c1O, the Potency [1] was inconclusive: 42.6 µM [inhibitor, partial curve].
In the case of CN(C)c1ccc(C=C2SC(=S)NC2=O)cc1, the Potency [1] is reported as inconclusive: 84.9 µM [inhibitor, single point].
For Cc1cc(C)cc(OCC(O)CN2CCC(CN3C(=O)c4cccc5cccc(c45)C3=O)CC2)c1 (centres undefined), the Potency [1] was inconclusive: 33.8 µM [inhibitor, partial curve].
For O=C1NC(=O)/C(=C/c2ccc(-c3cccc([N+](=O)[O-])c3)o2)S1, the Potency [1] was inconclusive: 67.5 µM [inhibitor, partial curve] and the Potency [2] was inconclusive: 75.7 µM [inhibitor, single point].
For Oc1ccc(CNc2cccnc2)c2cccnc12, the Potency [1] was active: 37.9 µM.
In the case of COc1ccc(-c2oc3ncnc(NCCCN(C)C)c3c2-c2ccc(OC)cc2)cc1, the Potency [1] is reported as inconclusive: 67.5 µM [inhibitor, partial curve].
For CN(C)CCCNc1ncnc2sc(-c3ccccc3)cc12, the Potency [1] was inconclusive: 37.9 µM [inhibitor, partial curve].
In the case of COc1ccc(OC)c(CCNC(=O)Cn2nc(C)c3c(C)n(-c4ccc(C)cc4)nc3c2=O)c1, the Potency [1] is reported as inconclusive: 37.9 µM [inhibitor, partial curve].
With CCC(Sc1nc2ccsc2c(=O)n1Cc1ccc(C(=O)O)cc1)C(=O)Nc1ccc(C)c(Cl)c1 (centres undefined) the Potency [1] was inconclusive: 75.7 µM [inhibitor, partial curve].
In the case of CC(C)Cn1c(N)c(C(=O)COC(=O)c2ccc([N+](=O)[O-])o2)c(=O)n(C)c1=O, the Potency [1] is reported as active: 9.53 µM.
For CCOc1ccccc1NC(=O)CSc1nc2ccccc2c2nc(CCn3cncc3C)nn12, the Potency [1] was inconclusive: 67.5 µM [inhibitor, partial curve].
For COc1ccc(Cn2c(C)nc3c(c2=O)c2nc4ccccc4nc2n3Cc2ccco2)cc1, the Potency [1] was inconclusive: 75.7 µM [inhibitor, partial curve].
For Cc1cc2oc3cc(NCCC4CCCN4C)ccc3c(=O)c2cc1C (centres undefined), the Potency [1] was active: 33.8 µM.
In the case of CCN(CC)CCCNC(=O)c1cc2c(-c3cccc(OC)c3)nn(C)c2s1, the Potency [1] is reported as inconclusive: 42.6 µM [inhibitor, partial curve].
In the case of O=C(NNC(=O)c1cc(O)c(O)c(O)c1)NC1CCCCC1, the Potency [1] is reported as inconclusive: 47.8 µM [inhibitor, partial curve].
For O=C1NC2c3c(Cl)sc(Cl)c3C(=O)C2O1 (centres undefined), the Potency [1] was inconclusive: 75.7 µM [inhibitor, partial curve].
In the case of Nc1ccc2nc(-c3cc(Cl)c(N)c(Cl)c3)[nH]c2c1, the Potency [1] is reported as inconclusive: 33.8 µM [inhibitor, partial curve].
In the case of CC1(C)CC(N=c2cc(-c3ccccc3)oc3ccc(Cl)cc23)CC(C)(C)N1, the Potency [1] is reported as active: 19 µM.
In the case of Nc1nccnc1C(=O)OCC(=O)Nc1ccc2[nH]c(=O)[nH]c2c1, the Potency [1] is reported as inconclusive: 37.9 µM [inhibitor, partial curve].
For CCc1nnc(N/N=C/c2c(Cl)cccc2Cl)n1N, the Potency [1] was inconclusive: 95.3 µM [inhibitor, partial curve].
For Cc1nnc(NC(=O)c2sc3nc(-c4cccs4)cc(C(F)(F)F)c3c2N)s1, the Potency [1] was inconclusive: 67.5 µM [inhibitor, partial curve].
